The whole screen tested about 310,000 compounds, of which about 2,200 (0.71%) showed an effect of 50% or more. The effect is printed as a negative number. Some of the results follow.
Target: human ether-à-go-go-related gene (hERG) potassium channel (human, UniProt Q12809)
Assay: primary screen, population patch clamp on CHO cells stably expressing hERG

human ether-à-go-go-related gene (hERG) potassium channel, sequence (Q12809 whole entry, looked up): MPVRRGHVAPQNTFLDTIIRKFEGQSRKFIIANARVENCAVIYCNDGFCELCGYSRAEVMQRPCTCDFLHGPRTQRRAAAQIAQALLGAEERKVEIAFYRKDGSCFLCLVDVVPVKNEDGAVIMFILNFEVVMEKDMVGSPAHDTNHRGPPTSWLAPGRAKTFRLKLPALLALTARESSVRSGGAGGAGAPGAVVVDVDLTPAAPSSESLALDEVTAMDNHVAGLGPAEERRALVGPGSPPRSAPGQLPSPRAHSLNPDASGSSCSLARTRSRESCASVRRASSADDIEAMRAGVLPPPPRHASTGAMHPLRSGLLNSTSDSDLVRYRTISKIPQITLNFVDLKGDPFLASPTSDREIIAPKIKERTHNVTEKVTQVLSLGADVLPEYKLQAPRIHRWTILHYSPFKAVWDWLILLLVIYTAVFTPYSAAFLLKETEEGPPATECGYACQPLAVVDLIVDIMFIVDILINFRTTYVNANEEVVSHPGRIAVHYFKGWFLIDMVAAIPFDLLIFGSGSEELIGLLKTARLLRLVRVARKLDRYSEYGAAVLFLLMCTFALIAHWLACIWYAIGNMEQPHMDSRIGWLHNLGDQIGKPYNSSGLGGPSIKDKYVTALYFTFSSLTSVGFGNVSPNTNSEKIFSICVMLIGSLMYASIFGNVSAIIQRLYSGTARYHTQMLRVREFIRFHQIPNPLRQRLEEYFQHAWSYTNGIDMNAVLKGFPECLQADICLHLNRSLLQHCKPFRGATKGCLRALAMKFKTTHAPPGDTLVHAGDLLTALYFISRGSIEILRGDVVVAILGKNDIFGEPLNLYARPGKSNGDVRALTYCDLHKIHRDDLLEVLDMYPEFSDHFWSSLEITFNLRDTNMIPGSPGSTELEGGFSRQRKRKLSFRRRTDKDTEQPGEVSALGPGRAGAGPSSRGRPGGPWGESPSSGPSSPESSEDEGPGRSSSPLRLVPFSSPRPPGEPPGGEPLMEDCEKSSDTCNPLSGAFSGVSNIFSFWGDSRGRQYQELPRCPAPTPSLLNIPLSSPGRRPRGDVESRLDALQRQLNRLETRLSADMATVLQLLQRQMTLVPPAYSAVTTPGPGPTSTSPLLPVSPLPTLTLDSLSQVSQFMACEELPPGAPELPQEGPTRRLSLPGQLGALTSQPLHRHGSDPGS

| Compound | hERG current change (%, negative = inhibition) at 1uM |
| --- | --- |
| O=C1CSC(=Nc2ccccc2)N1 | 9.27% |
| Cc1c(Cl)cccc1NC(=O)NNC(=O)CCc1ccccc1 | 15.9% |
| O=C(CN1C(=O)NC2(CCCCCC2)C1=O)N1CCCCC1 | 6.81% |
| O=C(Cc1ccc(Cl)cc1)N1CCOCC1 | 8.39% |
| CSc1ncccc1C(=O)OCC(=O)c1ccc(S(=O)(=O)N2CCCCC2)cc1 | 8.16% |
| COc1cccc(OCC(=O)Nc2c3c(nn2-c2ccc(F)cc2)CS(=O)(=O)C3)c1 | 5.33% |
| CC1CCCCN1C(=O)COC(=O)CNC(=O)c1sc2ccccc2c1Cl (centres unmarked) | 4.84% |
| CCN(C(=O)Cn1cnc2c1c(=O)n(C)c(=O)n2C)C1CCS(=O)(=O)C1 (centres unmarked) | 2.1% |
| COc1cccc(NC(=S)C(C#N)=C2N(C)c3ccccc3N2C)c1 | 10.1% |
| CCCOc1ccc(-c2nnc(-c3cccs3)o2)cc1 | 13.6% |
| COc1ccc(S(=O)(=O)N(CCC(N)=O)Cc2ccco2)cc1OC | 12.2% |
| CCOC(=O)C1C(=O)NC(SCC(N)=O)=C(C#N)C1c1ccccc1OCC (centres unmarked) | 4.3% |
| O=C(CSc1ccc(Cl)cc1)Nc1nnc(-c2ccco2)o1 | -1.41% |
| C=CCOc1cccc(CNCc2cccnc2)c1.Cl | 17% |
| C=C(C)CC1(NC(C)c2ccccc2)CCCCC1 (centres unmarked) | 9.47% |
| Cc1cc(C)nc(N/N=C/c2ccc([N+](=O)[O-])o2)n1 | 10.3% |
| Cc1[nH]c(-c2ccco2)nc1C(=O)O | -0.859% |
| CC(C)[C@H](NC(=O)N1CC(=O)Nc2ccccc21)C(=O)N[C@@H](C(=O)O)c1ccccc1 | 17.6% |
| O=[N+]([O-])c1ccc(Cl)c(/C=N/Nc2nc(N3CCOCC3)nc(N3CCOCC3)n2)c1 | 14.1% |
| O=c1c2ccccc2nnn1CSc1ccccc1 | 7.39% |
| CSCCC(NS(=O)(=O)c1ccccc1F)C(=O)NCc1ccncc1 (centres unmarked) | 2.74% |
| CCOc1cc(N2CCOCC2)c(OCC)cc1NC(=O)[C@H](C)N1C(=O)C2CC=CCC2C1=O (some centres unmarked) | 7.64% |
| COc1ccc(CNCCNC(=O)c2cccs2)cc1OC.O=C(O)C(=O)O | -5.92% |

| Compound | hERG current change (%, negative = inhibition) at 1uM |
| --- | --- |
| Cn1nc(-c2ccc(Cl)cc2)cc1NC(=O)CSCC(=O)O | 10.6% |
| CC(C)N(C(=O)CSc1nnc(Cn2nnc3ccccc32)n1C)C(C)C | 6.55% |
| CCOP(=O)(OCC)C(Nc1ccccc1)c1cccnc1 (centres unmarked) | 15.4% |
| CCOC(=O)c1cc2occc2n1CC(=O)N1CCN(C(=O)c2ccco2)CC1 | -15.2% |
| COc1ccc(-n2c(Cc3cccn3C)nnc2SCC(=O)N2CCOCC2)cc1 | 9.14% |
| O=C(CSc1nnnn1-c1ccc(F)cc1)Nc1nc2ccccc2s1 | 13.9% |
| Cl.O=C(OCCN1CCOCC1)c1ccccc1 | 12.2% |
| Cc1cc(NC(=O)c2ccc(Cl)c(S(=O)(=O)N3CCCCC3)c2)no1 | 13.1% |
| COc1ccc(C(=O)OCc2cc(C)ccc2C)cc1S(=O)(=O)N1CCCC1 | 3.56% |
| Cc1cccc(C)c1NC(=O)c1ccc(N2CCCC2=O)cc1 | 3.94% |
| COc1cc(C2C(C(=O)c3ccc(C)o3)=C(O)C(=O)N2Cc2ccccc2)ccc1O (centres unmarked) | 1.69% |
| CSc1ccc(C(=S)N2CCN(C)CC2)cc1 | 2.93% |
| Cc1ccc(-c2nc(CS(=O)CC(=O)NCc3ccc(F)cc3)c(C)o2)cc1 (centres unmarked) | 12.2% |
| COc1ccc(N(CC(=O)Nc2ccc3c(c2)OCO3)S(=O)(=O)c2ccccc2)c(OC)c1 | 5.6% |
| CC(C)(C)NC(=O)C(c1cccs1)N(Cc1ccc(F)cc1)C(=O)c1csnn1 (centres unmarked) | -1% |
| O=C(NCCN1CCN(c2ccccc2)CC1)c1cccn2c(=O)c3cc(Cl)ccc3nc12 | -15.6% |
| COCCCNC(=S)NCCNc1nc2cc(C)c(C)cc2cc1C#N | 6.77% |
| COCCN1CCN(C(=O)c2ccc3oc(CCc4ccccc4)nc3c2)CC1 | 2.2% |
| O=C(NC1CC1)C1=C[C@H](C2CC2)C[C@H](OCCCCO)O1 | 17.1% |
| O=c1cc(CN2CCOCC2)c2cc(Cl)ccc2o1 | 13.9% |
| CCN(CC)Cc1c(C(=O)N/N=C/c2c(Cl)cccc2Cl)nnn1-c1nonc1N | 4.75% |
| Cc1noc(C)c1CCC(=O)O | 13.2% |
| COc1ccc(-c2cc(C(=O)Nc3cc(C)on3)c3ccccc3n2)c(OC)c1 | 5.51% |

| Compound | hERG current change (%, negative = inhibition) at 1uM |
| --- | --- |
| Cc1ccc2[nH]c(=O)c(CN(Cc3cccs3)C(=S)NCC3CCCO3)cc2c1 (centres unmarked) | 20.5% |
| COC(=O)/C(=C/c1c[nH]c2ccccc12)NC(C)=O | 9.57% |
| CCCS(=O)(=O)c1c(S(=O)(=O)CCC)c2cc(CC)ccn2c1C(=O)OC | 4.8% |
| O=C(Nc1ccc(Cl)c(NC(=O)c2cccs2)c1)c1ccco1 | 10.3% |
| COC(=O)c1ccc(C(=O)OC)c(NC(=O)CSCc2ccccc2Br)c1 | 13.1% |
| Cc1ccc(S(=O)(=O)N2CCCCC2)cc1NC(=O)c1cc(=O)[nH]c2ccccc12 | 1.76% |
| Cc1cccc(OCC(=O)Nc2nc3ccc([N+](=O)[O-])cc3s2)c1 | 13.4% |
| O=C(O)c1ncc(-c2ccccc2)cn1 | 4.62% |
| COc1ccc(CCN2C(=S)N(C)C(=O)C2CC(=O)Nc2ccc(F)cc2)cc1 (centres unmarked) | 10% |
| OC(C#CCN1CCOCC1)c1cccs1 (centres unmarked) | 10.4% |
| NC(=S)NNc1cc(Cl)cc(Cl)c1 | -2.25% |
| Cc1cc(-c2cccs2)nc(-n2cccc2)n1 | 3.87% |
| CC(=O)Nc1cc(NC(C)=O)cc(C(=O)OC(C)C(=O)Nc2ccc(S(=O)(=O)N3CCCC3)cc2)c1 (centres unmarked) | 8.74% |
| CCCCc1ccc(NC(=S)N2CCN(C)CC2)cc1 | 4.95% |
| COc1ccc(N(CC(=O)Nc2ccccc2C(F)(F)F)C2=NC3CS(=O)(=O)CC3S2)cc1 (centres unmarked) | 10.4% |
| O=C(O)CCc1ccc(-c2ccc(Cl)cc2)n1NC(=O)c1ccc(O)cc1 | 19.3% |
| CCOC(=O)C(=CNc1ccc(Cl)cn1)C(=O)OCC | 16.5% |
| O=C(Nc1cccc([N+](=O)[O-])c1)C1CC(=O)N(Cc2ccccc2)C1 (centres unmarked) | -18.8% |
| CCOc1cc2c(C#N)c(N(CC)CC)nc(N)c2c(N)n1 | 3.88% |
| CCOC(=O)N1CCN(c2c(NCCCOC(C)C)c(=O)c2=O)CC1 | 1.53% |
| COc1ccccc1C(N)=S | 4.87% |
| CCc1cc(=O)oc2cc(OCC(=O)N3CCC(C(N)=O)CC3)ccc12 | 9.16% |
| COc1ccc(CC(=O)NCc2ccc(-n3cccc3)cc2)cc1OC | 12.8% |

| Compound | hERG current change (%, negative = inhibition) at 1uM |
| --- | --- |
| O=C(NNc1c(Cl)cncc1Cl)c1sccc1Cl | 8.1% |
| CN(C)C(CNC(=O)c1cccs1)c1cccnc1 (centres unmarked) | 17.8% |
| COc1cccc(-c2cc(C(=O)N3CCN(C(=O)c4ccco4)CC3)[nH]n2)c1 | 6.31% |
| CC(Sc1nnnn1-c1ccccc1)C(=O)Nc1ccc(Cl)cn1 (centres unmarked) | 10.8% |
| CCOC(=O)c1ccc(NS(=O)(=O)c2ccc3c(c2)n(C)c(=O)n3C)cc1 | 18.5% |
| CCS(=O)(=O)N1Cc2ccccc2CC1C(=O)Nc1cccc(OC)c1 (centres unmarked) | 10% |
| O=C(CSc1nc2ccccc2o1)Nc1ccccc1N1CCOCC1 | 1.84% |
| Cc1cnc(=O)[nH]c1SCc1ccc([N+](=O)[O-])cc1 | -17.5% |
| Cc1ccc(S(=O)(=O)Nc2ccc3c(c2)C(=O)NC3=O)cc1[N+](=O)[O-] | 17.3% |
| O=C(CCSCc1ccccc1F)NCCc1ccccc1 | 13.7% |
| CC(C)C(=O)Nc1c2c(nn1-c1ccc(F)cc1)CS(=O)(=O)C2 | 13.7% |
| O=C(CCc1nnc2ccc(NCc3ccccc3)nn12)NC1CCCCC1 | 17.1% |
| Cc1cc(Br)ccc1SCC(=O)OCC(=O)Nc1ccc2[nH]c(=O)[nH]c2c1 | 15.4% |
| CC1CCC2(CC1)OCC1(CCC3(COC4(CCC(C)CC4)OC3)C1=O)CO2 (centres unmarked) | 13.6% |
| Cc1ccc(OCC(=O)NCCCNC(=O)c2cnccn2)cc1C | 9.1% |
| Cc1cc(Nc2cccc(F)c2)nc(-c2ccccc2O)n1 | 14.8% |
| COc1ccc(Cc2nc3ccc(C(=O)NCCn4ccnc4C)cc3o2)cc1OC | -12.6% |
| CCN(CC)C(=O)CCS(=O)(=O)c1cccc2nonc12 | 9.67% |
| Cc1nnc2ccc(Oc3ccc(-c4ccccc4)cc3)nn12 | 12.5% |
| COCCNC(=O)c1ccc2c(c1)ncn2-c1ccc(F)c(F)c1 | -3.09% |
| Cc1cc(C)c2c(=O)n(CC(=O)Nc3cccc(F)c3)sc2n1 | -0.269% |
| Cc1cc2ncc(S(C)(=O)=O)c(N)n2n1 | 16.2% |
| CN=C(Nc1ccc(Br)cc1)SC1CC(=O)N(c2ccc(OC)cc2)C1=O (centres unmarked) | 19.3% |

Reference: article PMC4336329 (PLoS ONE, 2015)
